Article PMC4336329 (PLoS ONE, 2015)
In all, about 310,000 compounds went through this assay and about 14,000 (4.5%) showed an effect of 50% or more. The effect is printed as a negative number. The list shows a part of the results.

Biological target: human ether-à-go-go-related gene (hERG) potassium channel (human, UniProt Q12809)
Assay: primary screen, population patch clamp on CHO cells stably expressing hERG
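Note: peak tail current of the secondary pulse compared with the same well before compound.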

Chain of human ether-à-go-go-related gene (hERG) potassium channel (Q12809 whole entry, looked up): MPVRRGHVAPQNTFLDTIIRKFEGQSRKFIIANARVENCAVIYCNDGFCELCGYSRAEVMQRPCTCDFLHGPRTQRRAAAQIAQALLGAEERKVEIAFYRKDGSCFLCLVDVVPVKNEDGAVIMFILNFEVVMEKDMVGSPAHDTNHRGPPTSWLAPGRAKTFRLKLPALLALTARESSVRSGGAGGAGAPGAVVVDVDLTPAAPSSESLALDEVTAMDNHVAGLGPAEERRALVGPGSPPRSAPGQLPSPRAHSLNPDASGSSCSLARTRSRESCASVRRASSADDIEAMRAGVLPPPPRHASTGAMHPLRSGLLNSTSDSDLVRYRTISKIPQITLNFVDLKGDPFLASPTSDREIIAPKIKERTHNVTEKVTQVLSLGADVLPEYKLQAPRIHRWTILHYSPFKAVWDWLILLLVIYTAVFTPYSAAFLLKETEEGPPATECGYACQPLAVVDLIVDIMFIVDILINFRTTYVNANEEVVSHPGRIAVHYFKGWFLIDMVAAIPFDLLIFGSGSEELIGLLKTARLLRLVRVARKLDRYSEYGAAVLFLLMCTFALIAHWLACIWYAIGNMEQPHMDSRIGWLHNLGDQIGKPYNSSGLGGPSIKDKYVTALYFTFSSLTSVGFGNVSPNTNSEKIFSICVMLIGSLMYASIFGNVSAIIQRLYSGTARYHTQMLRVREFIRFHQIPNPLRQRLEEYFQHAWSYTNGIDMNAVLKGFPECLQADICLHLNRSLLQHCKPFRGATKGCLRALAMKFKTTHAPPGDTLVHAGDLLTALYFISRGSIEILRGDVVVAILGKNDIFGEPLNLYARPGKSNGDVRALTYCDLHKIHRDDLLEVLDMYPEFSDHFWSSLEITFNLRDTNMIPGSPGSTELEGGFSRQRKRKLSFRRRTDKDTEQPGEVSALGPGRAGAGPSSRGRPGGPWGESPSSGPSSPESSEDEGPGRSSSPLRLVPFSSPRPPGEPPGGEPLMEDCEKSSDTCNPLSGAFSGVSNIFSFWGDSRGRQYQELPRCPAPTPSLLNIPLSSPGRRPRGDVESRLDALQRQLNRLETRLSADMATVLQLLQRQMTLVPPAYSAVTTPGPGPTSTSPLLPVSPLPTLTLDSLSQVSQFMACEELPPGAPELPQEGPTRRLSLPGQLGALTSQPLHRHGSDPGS

SMILES	hERG current change (%, negative = inhibition) at 10uM
O=C(CN1CCN(Cc2ccccc2)CC1)Nc1ccc(-n2cnnn2)cc1	-48%
CN1CCN(C2CC(=O)N(Cc3ccc(N4CCCC4=O)cc3)C2=O)CC1 (stereo not drawn)	6.9%
C[C@H](NC(=O)c1ccc(Cl)c(S(=O)(=O)N2CCOCC2)c1)c1nc2ccccc2[nH]1	-9.68%
CC(=O)N1CCC2(CC1)C/C(=N\NC(=S)Nc1ccc(C)cc1)c1cc(O)ccc1O2	-70.8%
O=C(c1cc(N2C(=O)C3C4CCC(C4)C3C2=O)ccc1Cl)N1CCCCCC1 (stereo not drawn)	3.82%
O=C(CSc1nnc(-c2ccccc2)n1Cc1ccccc1)NNC(=O)c1ccccc1O	16.1%
Cc1cc(C)c2nc(NC(=O)C3CC(=O)N(Cc4ccco4)C3)sc2c1 (stereo not drawn)	-40.4%
Cc1c(NC(=O)C(C)Sc2nccn2C)c(=O)n(-c2ccccc2)n1C (stereo not drawn)	12.4%
CCOC(=O)c1ccc2[nH]c3ccccc3c2c1	15%
CCOc1cc(CNC(CC)CO)ccc1OCC(=O)Nc1cccc(C(F)(F)F)c1 (stereo not drawn)	-68.3%
CCOC(=O)NCc1ccc2c(c1)OCO2	19.7%
C=CCSc1nnc(-c2ccccc2N=Cc2c(C)[nH]n(-c3ccccc3)c2=O)c(=O)[nH]1	-26.5%
CCN(C(=O)c1ccc2c(Cl)c3c(nc2c1)CCC3)c1ccc(C)c(C)c1	2.59%
CCCn1c(SCC(=O)c2ccc3c(c2)OCCO3)n[nH]c1=O	22.6%
S=C(c1ccc(-c2cc(Cl)ccc2Cl)o1)N1CCCCC1	5.57%
CCC(=O)NCc1ccc2[nH]c(C)cc2c1	37%
COCCNC(=O)c1ccccc1NC(=O)c1ccccc1N(C)S(=O)(=O)c1ccccc1	-3.05%
COc1ccc(C)cc1S(=O)(=O)NCc1cccs1	-17.6%
c1ccc2c(CNC3CCCCCC3)c[nH]c2c1	-20.8%

SMILES	hERG current change (%, negative = inhibition) at 10uM
O=C1CC(NS(=O)(=O)c2cccnc2)CN1c1ccc(Cl)cc1 (stereo not drawn)	-12%
CCCn1c(CCNc2nc(-c3ccc(Cl)c([N+](=O)[O-])c3)cs2)nc2cc(Cl)c(Cl)cc21	-25.5%
CCCCC1=CC2=CC(=O)C(C)(OC(=O)CC)C(=O)C2=CN1Cc1ccccc1 (stereo not drawn)	-42.9%
CCOC(=O)c1c(C)nc(SCC(N)=O)c(C#N)c1-c1ccccc1	9.96%
COc1cc(C(=O)OCC(=O)NCC2CCCCC2)ccc1OCC(C)C	1.68%
C=CCNC(=S)NNC(=O)c1ccc(C)c(Cl)c1	53.4%
CCc1ccc(N2C(=O)C3NN=C(C(=O)OCc4ccccc4)C3C2=O)cc1 (stereo not drawn)	-2.25%
CN1C(=S)SC(C)(NO)C1(C)C (stereo not drawn)	18.9%
COCCCNc1nc(CC(C)C)nc2c1nnn2Cc1ccccc1	-2.28%
COc1ccc(C2NCc3ccccc3-n3cccc32)cc1.Cl (stereo not drawn)	-21.5%
CC1(C)C(=O)Nc2ccccc2N1C(=O)COC(=O)c1cccnc1	-4.73%
O=C(Nc1ncccc1O)c1ccc(C(=O)c2ccccc2)cc1	6.73%
O=C(COc1ccc(Br)cc1)Nc1nc(-c2cccnc2)cs1	4.69%
Nc1cc(N)nc(SCC(=O)N2CCN(S(=O)(=O)c3ccccc3)CC2)n1	8.13%
Brc1ccc(-c2nnc3sc(CNCc4ccc5c(c4)OCO5)cn23)cc1	-16.3%
CCOC(=O)c1cnc(-n2nc(C)cc2C)nc1NNc1ncc(-c2ccccc2)cn1	-17.8%
O=C(C1CCCCN1S(=O)(=O)c1ccccc1)N1CCN(C(c2ccccc2)c2ccccc2)CC1 (stereo not drawn)	-3.5%
CCc1ccccc1NC(=O)CN(C)C(=O)CN1C(=O)NC2(CCCCCC2)C1=O	-4.57%
C=C(C)CN(CC)C(=O)c1ccc(OC2CCN(S(=O)(=O)N(C)C)CC2)cc1	12.2%

SMILES	hERG current change (%, negative = inhibition) at 10uM
O=C(CN1C(=O)c2cccc3cccc1c23)NCC1CCCO1 (stereo not drawn)	12.4%
COc1cc(C(=O)NCC(C)(C)CNC(=O)c2cc(OC)c(OC)c(OC)c2)cc(OC)c1OC	15.6%
COc1ccc(C(=O)C[n+]2ccccc2/C=N/O)cc1.[Br-]	20.3%
COc1ccc2[nH]c(O)c(N=NC(=O)Cc3cccs3)c2c1	-22.3%
CCOc1ccc(N=C2NC(=O)CS2)cc1	7.94%
COCCC1CCCCN1C(=O)c1ccc(OC2CCN(C(C)=O)CC2)c(OC)c1 (stereo not drawn)	22.6%
CC(C)Sc1nnc(SCC(=O)N(C)C2CCS(=O)(=O)C2)s1 (stereo not drawn)	-1.49%
CCCn1c(N)c(C(=O)CSc2nnc3n2CCCCC3)c(=O)n(C)c1=O	4.35%
O=C(c1ccccc1-c1nc(-c2ccc(Cl)cc2)no1)N1CCCC1	0.639%
Cc1ccccc1NC(=S)N/N=C/C(C)c1ccccc1 (stereo not drawn)	3.35%
O=C(O)CCCCCNC(=O)Cn1nnc2ccccc2c1=O	8.37%
COc1ccc(OC)c(NC(=O)CCNC(=O)Cn2ccc3ccccc3c2=O)c1	23.7%
CCN1CCN(CCC(=O)Nc2cc(OC)cc(OC)c2)CC1	12.6%
COc1ccc(C(=O)NCc2ccc3c(c2)OCO3)cc1	9.03%
CCOc1ccccc1C1CC(=O)NC(SCC(=O)Nc2nccs2)=C1C#N (stereo not drawn)	-0.586%
Cc1cc(OC(F)F)ccc1NC(=O)Nc1ccc([N+](=O)[O-])cc1	-9.46%
CCN1CCN(c2nc3c(c(=O)[nH]c(=O)n3C)n2Cc2ccccc2F)CC1	-7.31%
CCCC(C)NC(=O)c1ccc(OCc2ccc(Cl)cc2)c(OC)c1 (stereo not drawn)	4.98%
CCOc1cc(C(=O)OCC(=O)Nc2ncc(Cl)c(C)c2Cl)ccc1OCC(=O)N1CCOCC1	-15.3%
